The text below walks through data of article PMC6720459.

By UniProt entry, the sequences of proteins in these tests, tags left out. Where a name states a change or a piece, a line headed by the entry shows the natural chain unless it says otherwise.
UniProt Q9HBA0: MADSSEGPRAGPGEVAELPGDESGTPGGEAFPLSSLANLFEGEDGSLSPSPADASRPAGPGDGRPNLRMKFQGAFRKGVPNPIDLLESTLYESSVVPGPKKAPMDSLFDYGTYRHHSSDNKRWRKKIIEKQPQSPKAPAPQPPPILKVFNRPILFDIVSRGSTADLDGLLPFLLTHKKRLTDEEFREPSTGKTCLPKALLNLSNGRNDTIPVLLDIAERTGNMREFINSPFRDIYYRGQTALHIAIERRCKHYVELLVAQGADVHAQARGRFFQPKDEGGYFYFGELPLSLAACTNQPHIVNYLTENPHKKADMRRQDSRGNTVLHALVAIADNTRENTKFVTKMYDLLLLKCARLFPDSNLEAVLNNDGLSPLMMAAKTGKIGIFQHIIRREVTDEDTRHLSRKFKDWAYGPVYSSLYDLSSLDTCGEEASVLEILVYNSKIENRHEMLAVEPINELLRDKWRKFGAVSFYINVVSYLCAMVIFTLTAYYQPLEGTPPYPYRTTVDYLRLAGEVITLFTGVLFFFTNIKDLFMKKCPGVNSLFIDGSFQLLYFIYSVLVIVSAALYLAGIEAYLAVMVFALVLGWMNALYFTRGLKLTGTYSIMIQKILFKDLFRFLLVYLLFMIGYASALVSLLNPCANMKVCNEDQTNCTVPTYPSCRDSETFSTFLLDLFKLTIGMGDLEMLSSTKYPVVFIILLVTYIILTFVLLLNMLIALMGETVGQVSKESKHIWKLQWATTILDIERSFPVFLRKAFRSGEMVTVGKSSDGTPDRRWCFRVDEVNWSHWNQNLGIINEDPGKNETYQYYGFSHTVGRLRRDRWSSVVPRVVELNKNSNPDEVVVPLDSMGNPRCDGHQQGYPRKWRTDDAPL
UniProt Q9CQ22: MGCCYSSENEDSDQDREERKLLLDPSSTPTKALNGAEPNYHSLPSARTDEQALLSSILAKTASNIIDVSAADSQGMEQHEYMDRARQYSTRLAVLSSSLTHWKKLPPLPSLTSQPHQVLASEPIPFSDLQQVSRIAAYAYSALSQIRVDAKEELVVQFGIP
UniProt P38606: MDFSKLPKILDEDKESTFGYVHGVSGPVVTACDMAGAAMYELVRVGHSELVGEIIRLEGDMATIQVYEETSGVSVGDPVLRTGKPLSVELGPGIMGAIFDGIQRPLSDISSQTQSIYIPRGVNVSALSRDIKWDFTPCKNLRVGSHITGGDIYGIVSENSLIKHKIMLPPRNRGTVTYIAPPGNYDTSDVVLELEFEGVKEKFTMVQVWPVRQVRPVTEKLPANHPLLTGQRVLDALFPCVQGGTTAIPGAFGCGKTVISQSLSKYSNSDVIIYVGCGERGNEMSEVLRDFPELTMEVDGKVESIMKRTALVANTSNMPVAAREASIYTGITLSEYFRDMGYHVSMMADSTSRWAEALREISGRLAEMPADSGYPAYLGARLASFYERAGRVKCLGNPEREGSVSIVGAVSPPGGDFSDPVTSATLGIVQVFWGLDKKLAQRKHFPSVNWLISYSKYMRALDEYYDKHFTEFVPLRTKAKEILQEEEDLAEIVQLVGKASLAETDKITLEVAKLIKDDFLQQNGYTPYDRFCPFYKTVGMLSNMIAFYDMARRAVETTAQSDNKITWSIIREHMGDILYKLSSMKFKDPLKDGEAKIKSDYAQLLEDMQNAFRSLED
UniProt Q704Y3: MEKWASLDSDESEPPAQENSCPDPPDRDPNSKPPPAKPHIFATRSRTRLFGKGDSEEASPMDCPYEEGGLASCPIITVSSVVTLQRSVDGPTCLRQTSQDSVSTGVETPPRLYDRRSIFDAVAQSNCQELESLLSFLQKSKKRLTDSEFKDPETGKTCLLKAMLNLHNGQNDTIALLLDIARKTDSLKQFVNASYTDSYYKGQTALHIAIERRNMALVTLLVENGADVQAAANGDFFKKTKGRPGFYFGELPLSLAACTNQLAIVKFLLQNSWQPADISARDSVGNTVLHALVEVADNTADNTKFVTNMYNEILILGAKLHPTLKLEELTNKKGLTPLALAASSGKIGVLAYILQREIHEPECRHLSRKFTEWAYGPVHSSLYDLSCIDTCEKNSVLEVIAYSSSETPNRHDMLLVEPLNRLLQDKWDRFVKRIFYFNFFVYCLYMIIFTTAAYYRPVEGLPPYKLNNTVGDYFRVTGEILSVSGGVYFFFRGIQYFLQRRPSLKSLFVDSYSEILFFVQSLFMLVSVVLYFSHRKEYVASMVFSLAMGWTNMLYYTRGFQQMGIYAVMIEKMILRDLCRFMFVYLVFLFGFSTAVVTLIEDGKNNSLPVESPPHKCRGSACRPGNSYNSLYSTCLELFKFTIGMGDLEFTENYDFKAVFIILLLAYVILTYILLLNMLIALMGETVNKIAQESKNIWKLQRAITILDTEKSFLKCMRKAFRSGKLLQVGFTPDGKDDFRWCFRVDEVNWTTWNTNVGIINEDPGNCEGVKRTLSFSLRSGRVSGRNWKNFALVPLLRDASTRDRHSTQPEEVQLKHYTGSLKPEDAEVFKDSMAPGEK
UniProt Q9EPK8: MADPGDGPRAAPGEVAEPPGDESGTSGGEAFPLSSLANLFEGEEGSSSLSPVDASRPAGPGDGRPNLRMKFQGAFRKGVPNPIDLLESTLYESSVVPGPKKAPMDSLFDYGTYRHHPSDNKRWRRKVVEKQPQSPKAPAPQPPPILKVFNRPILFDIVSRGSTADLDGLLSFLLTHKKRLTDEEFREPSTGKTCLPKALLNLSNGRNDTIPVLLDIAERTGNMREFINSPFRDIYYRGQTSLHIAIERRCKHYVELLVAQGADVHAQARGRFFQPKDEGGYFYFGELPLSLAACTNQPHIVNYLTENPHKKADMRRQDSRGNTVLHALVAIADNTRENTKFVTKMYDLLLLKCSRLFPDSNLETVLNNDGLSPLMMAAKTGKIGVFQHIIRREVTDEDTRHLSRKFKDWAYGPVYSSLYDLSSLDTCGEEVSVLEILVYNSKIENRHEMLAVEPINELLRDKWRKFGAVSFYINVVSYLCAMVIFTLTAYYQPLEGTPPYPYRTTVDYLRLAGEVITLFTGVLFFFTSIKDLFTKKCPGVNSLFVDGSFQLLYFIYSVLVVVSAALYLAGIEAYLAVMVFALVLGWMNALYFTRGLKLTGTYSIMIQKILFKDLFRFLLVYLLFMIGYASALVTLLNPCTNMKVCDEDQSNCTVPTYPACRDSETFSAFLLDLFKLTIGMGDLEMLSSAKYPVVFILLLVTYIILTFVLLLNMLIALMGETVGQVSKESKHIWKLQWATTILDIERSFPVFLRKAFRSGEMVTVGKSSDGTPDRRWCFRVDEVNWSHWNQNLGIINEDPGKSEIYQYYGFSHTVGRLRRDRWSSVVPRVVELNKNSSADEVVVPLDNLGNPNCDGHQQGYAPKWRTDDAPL

In test [1] the target is Myc-TRPV4 (human) (UniProt Q9HBA0). Briefly: co-IP; two-step coIP of FLAG-ALDOA, Myc-TRPV4 and HA-v-ATPase from glucose-starved HEK293T cells, immunoblot. (A western blot detects proteins with antibodies after separation by electrophoresis.)
In test [2] the target is T1, FLAG-ALDOA (human) (UniProt P04075).
T1 sequence: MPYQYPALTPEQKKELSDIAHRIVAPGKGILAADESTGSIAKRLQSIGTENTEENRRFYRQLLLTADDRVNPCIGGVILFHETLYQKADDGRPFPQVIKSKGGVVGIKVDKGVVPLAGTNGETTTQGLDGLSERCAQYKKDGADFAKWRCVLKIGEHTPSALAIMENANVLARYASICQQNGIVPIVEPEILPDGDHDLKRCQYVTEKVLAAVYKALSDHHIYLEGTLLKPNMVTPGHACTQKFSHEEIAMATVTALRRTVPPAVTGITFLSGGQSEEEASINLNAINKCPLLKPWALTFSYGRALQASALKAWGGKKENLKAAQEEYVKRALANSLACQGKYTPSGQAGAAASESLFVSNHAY
Described as above.

In test [3] the target is T2, ALDOA, ectopically expressed (FLAG- or HA-tagged) (human) (UniProt P04075).
T2 sequence: T1 sequence
Put plainly: co-IP; FLAG- and HA-tagged TRPV and aldolase co-transfected in HEK293T; lysis in ODG buffer (50 mM Tris-HCl pH 8.0, 50 mM NaCl, 2% ODG); anti-FLAG M2 gel 4 h at 4 °C; elution with FLAG peptide; immunoblot.

The target of test [4] is T3, ALDOB, ectopically expressed (FLAG- or HA-tagged) (UniProt P05062).
T3 sequence: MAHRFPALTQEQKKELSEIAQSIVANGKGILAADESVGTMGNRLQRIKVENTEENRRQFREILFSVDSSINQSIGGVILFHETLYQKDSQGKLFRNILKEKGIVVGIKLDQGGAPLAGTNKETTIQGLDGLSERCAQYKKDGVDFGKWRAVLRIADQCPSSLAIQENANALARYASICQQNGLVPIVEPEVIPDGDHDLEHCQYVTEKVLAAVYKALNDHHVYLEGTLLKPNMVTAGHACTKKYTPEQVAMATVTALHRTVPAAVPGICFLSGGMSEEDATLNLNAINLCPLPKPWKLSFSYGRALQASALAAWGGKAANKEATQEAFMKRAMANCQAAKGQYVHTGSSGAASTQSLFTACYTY
The description is as above.

The target of test [5] is T4, ALDOC, ectopically expressed (FLAG- or HA-tagged) (UniProt P09972).
T4 sequence: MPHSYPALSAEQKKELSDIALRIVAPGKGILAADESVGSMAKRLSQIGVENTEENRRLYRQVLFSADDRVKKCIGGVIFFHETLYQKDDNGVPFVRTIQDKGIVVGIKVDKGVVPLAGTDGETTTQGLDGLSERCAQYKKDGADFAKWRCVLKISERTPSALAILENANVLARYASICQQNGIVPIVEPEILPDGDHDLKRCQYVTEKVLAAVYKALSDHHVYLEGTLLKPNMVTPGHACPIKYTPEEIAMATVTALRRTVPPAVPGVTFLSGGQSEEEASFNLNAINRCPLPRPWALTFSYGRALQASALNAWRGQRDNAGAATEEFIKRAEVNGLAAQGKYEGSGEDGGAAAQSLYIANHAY
Described as above.

The target of test [6] is T5, endogenous aldolase of MEFs (represented by ALDOA) (mouse (endogenous in MEFs)) (UniProt P05064).
T5 sequence: T1 sequence with Y3H, Q4P, I222V, H246N, I268V, V329I, A349S, V359I
Briefly: co-IP; endogenous proteins; lysates of 2-h glucose-starved MEFs (wild type or TRPV-QKO) in ODG buffer; aldolase or TRPV4 immunoprecipitated overnight, protein A/G beads; samples without or with 10 μM FBP and/or 0.5 μM CaCl2 (the losses told for FBP and CaCl2 are a6 and a7).

In test [7] the target is T5, endogenous aldolase of MEFs (represented by ALDOA) (mouse (endogenous in MEFs)). Briefly: co-IP; light organelles from 2-h glucose-starved MEFs, no FBP added; aldolase immunoprecipitated, immunoblot of endogenous TRPV4.
Test [8] has the same target. Briefly: co-IP; as a5, lysates of glucose-starved MEFs mixed with 10 μM FBP.
The target is the same in test [9]. Put plainly: co-IP; light organelles from 2-h glucose-starved MEFs with FBP added at 10 μM and above; aldolase immunoprecipitated, immunoblot of endogenous TRPV4.
In test [10] the target is endogenous LAMTOR1 of MEFs (mouse (endogenous in MEFs)) (UniProt Q9CQ22). Briefly: co-IP; endogenous LAMTOR1 immunoprecipitated from MEFs in ODG buffer; cells regularly cultured, glucose-starved, treated with 100 μM BAPTA-AM for 30 min, or TRPV-QKO.
The target is the same in test [11]. Put plainly: co-IP; light organelles from 2-h glucose-starved MEFs incubated with 10 μM FBP with or without 500 μM BAPTA at 37 °C, then with cytosol; lysis in ODG buffer; endogenous LAMTOR1 immunoprecipitated.

Positions count from the first letter of the chain named. Results are given in words; binding and its absence hold for the method and conditions named. In cells and extracts the contact can be indirect. Some entries that bind do so weakly or less than the wild type. For part of these data: Sequences can lack the tags named with a protein.

For the molecule “HA-v-ATPase (represented by its V1A, V1B2, v0d1, and V1D subunits) (from UniProt P38606 1-617; P21281 1-511; P61421 1-351; Q9Y5K8 1-247) (complex)”, the binding entry in test [1] and in test [2] was “binds” each time.

Myc-TRPV4 (from UniProt Q9HBA0 1-871): the binding result in test [2] is recorded as “binds”.

On to “TRPV1, ectopically expressed (FLAG- or HA-tagged) (from UniProt Q704Y3 1-839)”, for which the binding result in test [3] is recorded as “binds”.

In the case of “TRPV4, ectopically expressed (FLAG- or HA-tagged) (from UniProt Q9HBA0 1-871)”, the binding result in [4], in test [5] and in test [3] was “binds” each time.

TRPV4-K535A (from UniProt Q9HBA0 1-871): in test [3], the binding entry is on record as “no binding”.

As for “endogenous TRPV1 of MEFs (from UniProt Q704Y3 1-839)”, in test [6], the binding entry was “binds”.

For “endogenous TRPV4 of MEFs (from UniProt Q9EPK8 1-871)”, the binding entry is listed as “binds” in test [7], “no binding (condition: with 10 μM FBP)” in test [8], “binds” in [6] and “no binding (condition: with 10 μM (and above) FBP)” in test [9].

B1: endogenous LKB1 of MEFs (protein, UniProt Q9WTK7 1-436)
chain: MDVADPEPLGLFSEGELMSVGMDTFIHRIDSTEVIYQPRRKRAKLIGKYLMGDLLGEGSYGKVKEVLDSETLCRRAVKILKKKKLRRIPNGEANVKKEIQLLRRLRHRNVIQLVDVLYNEEKQKMYMVMEYCVCGMQEMLDSVPEKRFPVCQAHGYFRQLIDGLEYLHSQGIVHKDIKPGNLLLTTNGTLKISDLGVAEALHPFAVDDTCRTSQGSPAFQPPEIANGLDTFSGFKVDIWSAGVTLYNITTGLYPFEGDNIYKLFENIGRGDFTIPCDCGPPLSDLLRGMLEYEPAKRFSIRQIRQHSWFRKKHPLAEALVPIPPSPDTKDRWRSMTVVPYLEDLHGRAEEEEEEDLFDIEDGIIYTQDFTVPGQVLEEEVGQNGQSHSLPKAVCVNGTEPQLSSKVKPEGRPGTANPARKVCSSNKIRRLSACKQQ
Take B1: the binding entry in test [10] and in [11] was “binds” in each case.
